{"source": "PubChem BioAssay (Tox21)", "note": "“And” between values parts separate entries of the source, which are not always exact repeats. Identical values can stand only once. Inconclusive means that the source gave no clear call. Such entries were picked first, then a sample of the others. A potency beside an inconclusive call is a rough fit, not a confirmed value. The source made the active and inactive calls. Calls follow the shape of the dose curve; as a rule, active = well fitted activation curve with a large enough effect in the signal ratio in the repeat runs (not every such curve was filed as active); inconclusive = weak or mixed curves; inactive = flat fitted curve, though single readings scatter; the % refers to the signal ratio. % is scaled to controls: 0 for no effect and ±100 for the full control effect; potency is read from the fitted curve at half-maximal effect; tags tell the direction and shape of the fitted curve or compound fluorescence and quenching.", "data": [{"experiment": "qHTS assay to identify small molecule agonists of H2AX (AID 1224845)", "conditions": "CHO-K1 phospho-H2AX Ser139 HTRF, 3 h; activation (H2AX phosphorylation): at 154 µM (top of the series) unless noted", "procedure,_shortened": "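Phospho-H2AX Ser139 measured by HTRF (ex 320 nm; em 665 and 620 nm) after 24 hr antibody incubation. Compounds, 15 concentrations, 0.76% DMSO, were applied to CHO-K1 cells for 3hr at 37C before lysis.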", "values": [{"compound": "CCOC(=O)c1ccccc1C", "activation (H2AX phosphorylation)": "inactive: 0.241%"}, {"compound": "COC(=O)CCCCC(=O)OC", "Potency": "inactive"}, {"compound": "O=[N+]([O-])c1ccc(Nc2ccc(Nc3ccccc3)c(S(=O)(=O)O)c2)c([N+](=O)[O-])c1", "activation (H2AX phosphorylation)": "inconclusive: -1.92%"}, {"compound": "S=c1nc[nH]c2nc[nH]c12", "Potency": "inconclusive: 110 µM [falling, single point]", "activation (H2AX phosphorylation)": "inconclusive: 6.61% [at 70.9 µM]"}, {"compound": "O=C1NC(=O)c2ccccc21", "Potency": "inactive"}, {"compound": "CNCCCC12CCC(c3ccccc31)c1ccccc12", "Potency": "inconclusive: 127 µM [activator, single point]", "activation (H2AX phosphorylation)": "inconclusive: 9.14% [at 70.9 µM]"}, {"compound": "CCCCCCNC(=O)n1cc(F)c(=O)[nH]c1=O", "Potency": "inconclusive: 34.8 µM [activator, partial curve]"}, {"compound": "CC(=O)[C@H]1CC[C@H]2[C@@H]3CCC4=CC(=O)CC[C@]4(C)[C@H]3CC[C@]12C", "Potency": "inconclusive: 112 µM [activator]", "activation (H2AX phosphorylation)": "inconclusive: 8.25%"}, {"compound": "Nc1ccc(O)c(N)c1", "Potency": "inconclusive: 12.6 µM [cytotoxic, partial curve] and inconclusive: 17.9 µM [cytotoxic, partial curve]"}, {"compound": "Oc1ccc(C2CNCCc3c2cc(O)c(O)c3Cl)cc1", "note": "(stereo not drawn)", "Potency": "inconclusive: 78 µM [falling, partial curve, poor fit]"}, {"compound": "O=C(OCC(COC(=O)c1cccnc1)(COC(=O)c1cccnc1)COC(=O)c1cccnc1)c1cccnc1", "activation (H2AX phosphorylation)": "inactive: -0.942% [at 70.9 µM]"}, {"compound": "O=C(O)c1ccc(-n2nc(-c3ccccc3O)nc2-c2ccccc2O)cc1", "Potency": "inconclusive: 61.9 µM [falling, single point]"}, {"compound": "O=C(/C=C/c1ccc(O)c(O)c1)O[C@@H]1C[C@@](OC(=O)/C=C/c2ccc(O)c(O)c2)(C(=O)O)C[C@@H](O)[C@@H]1O", "Potency": "inconclusive: 22 µM [cytotoxic]"}, {"compound": "CC[C@H]1CN2CCc3cc(OC)c(OC)cc3[C@@H]2C[C@@H]1C[C@H]1NCCc2cc(OC)c(OC)cc21", "Potency": "inconclusive: 0.901 µM [activator, partial curve]", "activation (H2AX phosphorylation)": "inconclusive: 16.8% [at 70.9 µM]"}, {"compound": "CNc1ccc(O)cc1", "Potency": "inconclusive: 44.9 µM [falling, partial curve]"}, {"compound": "CCN1CCN(c2cc(-c3ccc(F)cc3)c3c(n2)CCCCCC3)CC1", "activation (H2AX phosphorylation)": "inactive: 3.44% [at 31.6 µM]"}, {"compound": "CSC(=O)c1cccc2nnsc12", "activation (H2AX phosphorylation)": "inactive: 1.12%"}, {"compound": "Cc1oc(=O)oc1COC(=O)[C@@H]1N2C(=O)[C@@H](NC(=O)[C@H](N)c3ccccc3)[C@H]2SC1(C)C", "activation (H2AX phosphorylation)": "inactive: 1.17% [at 70.9 µM]"}, {"compound": "Nc1ccc(S(N)(=O)=O)cc1", "Potency": "inactive"}, {"compound": "CCN(CC)c1ccc(C(=C2C=CC(=[N+](CC)CC)C=C2)c2cc(S(=O)(=O)O)ccc2S(=O)(=O)[O-])cc1", "Potency": "inconclusive: 12.4 µM [cytotoxic, partial curve]"}, {"compound": "CC(=O)C1=C(C)[C@@H]2C[C@@]3(C1)[C@H](C)CC[C@H]3C2(C)C", "activation (H2AX phosphorylation)": "inconclusive: 8.97%"}, {"compound": "COC(=O)CC(C)CCC=C(C)C", "note": "(stereo not drawn)", "Potency": "inconclusive: 113 µM [activator, single point]"}, {"compound": "CC1CCC(C(C)CS)CC1S", "note": "(stereo not drawn)", "Potency": "inconclusive: 40.1 µM [rising, full curve]"}, {"compound": "C=CC(=O)OCCCCCCCCCC", "activation (H2AX phosphorylation)": "inactive: -1.7%"}, {"compound": "CCC(OCCCOC)OC(C)=O", "note": "(stereo not drawn)", "activation (H2AX phosphorylation)": "inactive: -1.38%"}, {"compound": "CN(C)CCCNCCCN(C)C", "activation (H2AX phosphorylation)": "inactive: -0.734%"}, {"compound": "COc1cccc2c1C(=O)c1c(O)c3c(c(O)c1C2=O)C[C@@](O)(C(=O)CO)C[C@@H]3O[C@H]1C[C@H](N)[C@H](O[C@@H]2CCCCO2)[C@H](C)O1", "Potency": "inconclusive: 8.75 µM [falling, full curve]"}, {"compound": "Nc1cc(S(=O)(=O)O)cc2cc(S(=O)(=O)O)cc(O)c12", "Potency": "inconclusive: 17.8 µM [cytotoxic] and inconclusive: 17.9 µM [cytotoxic, full curve]"}, {"compound": "O=c1[nH]ncc2ccccc12", "activation (H2AX phosphorylation)": "inactive: 0.614%"}, {"compound": "COc1cc(C=C2CCC/C(=C\\c3ccc(O)c(OC)c3)C2=O)ccc1O", "Potency": "inconclusive: 55.2 µM [activator, single point]"}, {"compound": "Clc1ccnc(Cl)n1", "activation (H2AX phosphorylation)": "inactive: 4.66%"}, {"compound": "CNCCC(Oc1ccc(C(F)(F)F)cc1)c1ccccc1", "note": "(stereo not drawn)", "Potency": "inconclusive: 112 µM [activator] and inconclusive: 61.9 µM [activator]"}, {"compound": "NNC(=O)CP(=O)(c1ccccc1)c1ccccc1", "activation (H2AX phosphorylation)": "inactive: 1.65% [at 70.9 µM]"}, {"compound": "CCN(Cc1cccc(S(=O)(=O)O)c1)c1ccc(C(=C2C=CC(=[N+](CC)Cc3cccc(S(=O)(=O)O)c3)C=C2)c2ccccc2S(=O)(=O)[O-])cc1", "Potency": "inconclusive: 4.52 µM [cytotoxic, full curve]"}, {"compound": "CCSCC", "Potency": "inconclusive: 134 µM [activator, single point]"}, {"compound": "COc1c(Cl)c(Cl)c(Cl)c(Cl)c1Cl", "Potency": "inactive"}, {"compound": "CCCCCCn1c(=O)c2c(ncn2C)n(C)c1=O", "activation (H2AX phosphorylation)": "inactive: -0.6% [at 70.9 µM]"}]}, {"experiment": "qHTS assay to identify small molecule agonists of the hypoxia (HIF-1) signaling pathway (AID 1224846)", "conditions": "HRE-bla ME-180 cells, beta-lactamase ratio, 17 h; activation: at 76.8 µM (top of the series) unless noted", "procedure,_shortened": "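Steps: seed ME-180 HRE-bla cells (2,000/well, 0.5% dialyzed FBS); incubate 5 hrs at 37C; pin-transfer compounds or DMSO; incubate 17 hrs; add LiveBLAzer B/G substrate CCF4-AM; measure reporter activation by FRET.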", "values": [{"compound": "CCOC(=O)c1ccccc1C", "Potency": "inconclusive: 19.5 µM [rising, full curve]"}, {"compound": "Nc1ccc(O)c(N)c1", "Potency": "inactive"}, {"compound": "O=C(OCC(COC(=O)c1cccnc1)(COC(=O)c1cccnc1)COC(=O)c1cccnc1)c1cccnc1", "activation": "inactive: 0.965% [at 35.5 µM]"}, {"compound": "O=C(O)c1ccc(-n2nc(-c3ccccc3O)nc2-c2ccccc2O)cc1", "Potency": "inconclusive: 6.01 µM [activator, full curve]"}, {"compound": "CNc1ccc(O)cc1", "Potency": "inconclusive: 24.5 µM [full curve]"}, {"compound": "CC1CCC(C(C)CS)CC1S", "note": "(stereo not drawn)", "Potency": "inconclusive: 54.9 µM [single point]"}, {"compound": "COc1cccc2c1C(=O)c1c(O)c3c(c(O)c1C2=O)C[C@@](O)(C(=O)CO)C[C@@H]3O[C@H]1C[C@H](N)[C@H](O[C@@H]2CCCCO2)[C@H](C)O1", "Potency": "inconclusive: 26.8 µM [falling, partial curve]"}, {"compound": "Nc1cc(S(=O)(=O)O)cc2cc(S(=O)(=O)O)cc(O)c12", "Potency": "inconclusive: 2.19 µM [fluorescent, full curve]", "activation": "inconclusive: 7.56%"}, {"compound": "COc1cc(C=C2CCC/C(=C\\c3ccc(O)c(OC)c3)C2=O)ccc1O", "Potency": "inconclusive: 26.8 µM"}, {"compound": "Clc1ccnc(Cl)n1", "Potency": "inconclusive: 62.5 µM [falling, single point]"}, {"compound": "NNC(=O)CP(=O)(c1ccccc1)c1ccccc1", "activation": "inactive: -0.49% [at 35.5 µM]"}]}]}
